# Experimental data taken from PubChem BioAssay AID686978 (National Center for Advancing Translational Sciences (NCATS), 2013).
# Hit rate of the full screen: of about 420,000 compounds, about 64,000 (15%) were called active. Inconclusive means that the source gave no clear call. Such entries were picked first, then a sample of the others. Calls follow the shape of the dose curve; as a rule, active = well fitted inhibition curve with a large enough effect; inconclusive = small, poorly fitted or top-dose-only effect; inactive = flat fitted curve, though single readings scatter. No potency is given beside an inconclusive call; the fits are too rough.
# Experiment: qHTS for Inhibitors of human tyrosyl-DNA phosphodiesterase 1 (TDP1): qHTS in cells in absence of CPT; also: nearly all actives have a fitted effect of over 55% in size
# Conditions: DT40 Tdp1-/- hTDP1 cells, no CPT, ATP luminescence, 48 h; activity change, negative = growth inhibition: at 46.2 µM (top of the series)
# Summary of the method: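 Growth kinetics read by CellTiter-Glo luminescence after ≥48 hr at 37 °C. Cells: DT40 Tdp1-/- stably carrying human TDP1, 400 per well, compound exposure in the absence of CPT (DMSO vehicle).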
# % is scaled to controls: 0 for no effect and ±100 for the full control effect; potency is read from the fitted curve at half-maximal effect; tags tell the direction and shape of the fitted curve.
Compound,Potency,"activity change, negative = growth inhibition"
C/C(=C1/SC(N2CCCC2)=NC1=O)c1ccc(Br)cc1,"inconclusive [inhibitor, partial curve, poor fit]",
COc1cccc(C(=O)N2CCN(C3CCC(c4ccccc4)CC3)CC2)c1 (stereo not drawn),"inconclusive [inhibitor, single point]",
Cc1ccc(NC(=O)CN2C(=O)NC(Cc3c[nH]c4ccccc34)C2=O)cc1 (stereo not drawn),inactive,
Cc1ccc(-c2cn(-c3ccccc3)c(SCC(=O)NC3CCS(=O)(=O)C3)n2)cc1C (stereo not drawn),"inconclusive [inhibitor, partial curve, poor fit]",
CCC(=O)Nc1cc(-c2cc3ccccc3oc2=O)ccc1OC,"inconclusive [inhibitor, single point]",
CNc1ccc(C(=O)OCC(=O)NC(=O)NC2CCCC2)cc1[N+](=O)[O-],inactive,
COc1ccc2[nH]cc(CCNc3ccnc(-c4ccccc4C)n3)c2c1,"inconclusive [inhibitor, single point]",
COc1cc(OC)c2c(-c3cccc(-c4sccc4C(C)=O)c3)cc(=O)oc2c1,active: 4.11 µM,
CSc1ccccc1NC(=S)Nc1cc(C)cc(C)c1,"inconclusive [inhibitor, single point]",
COc1ccc(C2=NO[C@H]3C[C@](C(=O)NC(C)C)(S(=O)(=O)c4ccccc4)C[C@@H]23)cc1,inactive,
O=C(Nc1cccc(S(=O)(=O)N2CCOCC2)c1)c1cnn2c(C(F)F)cc(-c3ccccc3)nc12,"inconclusive [inhibitor, partial curve]",
Cc1cccc(N2CCN(C(=O)CCC(=O)N3CC(C)Oc4ccc(C)cc43)CC2C)c1 (stereo not drawn),"inconclusive [inhibitor, partial curve, poor fit]",
C=CCNc1nnc(SCC(=O)N2CCC(C(N)=O)CC2)s1,inactive,
CCN1C(=O)c2cccc3c(S(=O)(=O)Nc4ccccc4)ccc1c23,"inconclusive [inhibitor, single point]",
COc1ccc(C2=NS(=O)(=O)N(C)C(C(=O)NCc3cccs3)=C2)cc1OC,"inconclusive [inhibitor, single point]",
O=S(=O)(CCN1CCN(c2ccccc2O)CC1)c1ccc(Cl)cc1,"inconclusive [inhibitor, single point]",
CC(OC(=O)c1cccc(-n2cnnn2)c1)C(=O)Nc1ccc(F)cc1 (stereo not drawn),inactive,
Cc1ccc(C(=O)c2cc3ccccc3o2)cc1C,"inconclusive [inhibitor, single point]",
O=C(C[C@H]1C/C=C\CC[C@H](Cc2ccc(F)cc2)C(=O)OC[C@H]2CCCN2C1=O)N[C@H](CO)Cc1ccccc1,active: 20.6 µM,
CC1Cn2c(C(=O)NCc3cccc(Br)c3)cc3cccc(c32)S1 (stereo not drawn),"inconclusive [inhibitor, single point]",
CCn1nc(C)cc1C(=O)NCC1Cc2cc(C)cc(-c3ccccc3C(=O)OC)c2O1 (stereo not drawn),"inconclusive [inhibitor, single point]",

Compound,Potency,"activity change, negative = growth inhibition"
CC(C)(C)C1CCc2nc(NC(=O)c3ccc([N+](=O)[O-])cc3)sc2C1 (stereo not drawn),"inconclusive [inhibitor, partial curve]",
CCCn1nc(C(=O)NCC2COc3ccccc3O2)c2ccccc2c1=O (stereo not drawn),"inconclusive [inhibitor, single point]",
Cc1c(Cl)cccc1NC(=O)CSc1nc2ncccc2o1,"inconclusive [inhibitor, single point]",
COc1ccc(C2CC(c3ccccc3)=NN2C(=O)COC(=O)c2cccc(S(=O)(=O)N3CCOCC3)c2)cc1 (stereo not drawn),"inconclusive [inhibitor, full curve, poor fit]",
Cc1ccc(S(=O)(=O)N2CCOCC2)cc1C(=O)OCC(=O)NC1CCCCC1,"inconclusive [inhibitor, partial curve]",
COCCNC(=O)CN(Cc1ccccc1)S(=O)(=O)c1ccc2nc(C)sc2c1,,inconclusive: -32.9% [inhibitor]
O=C(Nc1cc(Cl)cc(Cl)c1)C(c1ccccc1)N1CCCCC1 (stereo not drawn),"inconclusive [inhibitor, single point]",
COc1ccccc1N1CCN(C(=S)NC(=O)/C=C/c2ccc(F)cc2)CC1,"inconclusive [inhibitor, single point]",
COc1cc(NC(=O)[C@@H]2O[C@H](CO)[C@@H](O)[C@H]2O)cc(OC)c1OC,inactive,
CN(C)c1ccc(NC(=S)NC23CC4CC(CC(C4)C2)C3)cc1,"inconclusive [inhibitor, partial curve, poor fit]",
C/C=C(/C)C(=O)Nc1cccc(C2=NOC3(C2)C[C@H](C(N)=O)N(C(=O)COc2ccc(Cl)cc2)C3)c1 (stereo partly drawn),"inconclusive [inhibitor, single point]",
C=C(C)CNC(=S)N1CCNC(=O)C1CC(=O)OC (stereo not drawn),inactive,
COc1ccc(C(CCc2ccc(C)o2)NC(=O)Nc2ccc(OC)cc2OC)cc1 (stereo not drawn),"inconclusive [inhibitor, single point]",
C=CCC[C@@H](Cc1ccc(F)cc1)C(=O)OC[C@@H](Cc1c[nH]c2ccccc12)NC(=O)[C@H](CC=C)CC(=O)NCCO,active: 18.4 µM,
O=C(NC1CCCC1)C(c1ccc(F)cc1)N(Cc1ccccc1)C(=O)c1csnn1 (stereo not drawn),"inconclusive [inhibitor, single point]",
CC(C)(C)OC(=O)N[C@@H](CCCCNC(=O)OCc1ccccc1)c1nnc([C@H](CCCCNC(=O)OCc2ccccc2)NC(=O)OC(C)(C)C)o1,"inconclusive [inhibitor, partial curve]",
COc1ccccc1CNC(=O)C1CCCN(c2nnc(C)c3c(C)n(-c4ccccc4)nc23)C1 (stereo not drawn),active: 20.6 µM,
COc1ccccc1C(CNC(=O)c1cccc(S(=O)(=O)Nc2ccc(F)cc2)c1)N1CCCC1 (stereo not drawn),active: 20.6 µM,
CCOC(=O)c1c(C)[nH]c(C)c1S(=O)(=O)NCC1CCN(Cc2cccc(Cl)c2)CC1,"inconclusive [inhibitor, single point]",
Cc1cccc(/C=N/NC(=O)c2ccc(NC(=O)c3ccc(Cl)cc3)cc2)n1,"inconclusive [inhibitor, partial curve, poor fit]",
Cn1c(=O)c2c(ncn2CCC(=O)N/N=C/c2cccnc2)n(C)c1=O,inactive,

Compound,Potency,"activity change, negative = growth inhibition"
Cc1ccc(OCc2cc(C(=O)N3CCC(C(O)C(C)C)CC3)no2)cc1C (stereo not drawn),"inconclusive [inhibitor, single point]",
CCc1ccccc1NC(=O)c1sc2nc(C)cc(COC)c2c1N,"inconclusive [inhibitor, single point]",
COc1ccc(N2CCN(C(=O)NC3CCCCC3)CC2)cc1,,inconclusive: -30.1% [inhibitor]
CCOC(=O)c1c(C)[nH]c(C(=O)COC(=O)C(C)Oc2ccc(Cl)cc2Cl)c1C (stereo not drawn),"inconclusive [inhibitor, single point]",
Cc1nc(N2CCN(C)CC2)c2c(C)c(C(=O)Nc3ccc(C)c(F)c3)sc2n1,"inconclusive [inhibitor, single point]",
O=C(O)c1ccc(-n2cccc2/C=C2/NC(=O)N(c3cccc(Cl)c3)C2=O)cc1,inactive,
COC(=O)[C@@]1(Cc2ccc(F)cc2)[C@H]2c3cc(C(=O)N(C)C)n(CCN4CCOCC4)c3C[C@H]2CN1C(=O)c1ccccc1,"inconclusive [inhibitor, single point]",
CC1(C)Cc2c(c(=S)nc(-c3ccccc3)n2CCOCCO)CO1,inactive,
COc1ccc(-c2nnc(SCC(=O)OC3CCCCC3)o2)cc1OC,inactive,
COc1cccc(-c2oc3c(c2-c2ccc(OC)nc2)C(O)CCC3)c1 (stereo not drawn),"inconclusive [inhibitor, partial curve, poor fit]",
O=C(CCSCc1cccc(Cl)c1)NCc1ccc(F)cc1Cl,"inconclusive [inhibitor, single point]",
Cc1cc(C)cc(NC(=O)CSc2nc3nc(C)cc(C)n3n2)c1,"inconclusive [inhibitor, single point]",
COc1cccc(N(C(=O)c2ccco2)C(C(=O)NC2CCCC2)c2ccc(N(C)C)cc2)c1 (stereo not drawn),active: 16.4 µM,
Cc1ccc(NC(=O)CNC2CCCCC2)cc1Cl,"inconclusive [inhibitor, single point]",
Cc1ccc(C(=O)OCC(=O)Nc2ccccc2C(F)(F)F)cc1S(=O)(=O)N1CCCCC1,"inconclusive [inhibitor, single point]",
CCCc1nnc(NC(=O)c2c(O)c3cccc4c3n(c2=O)CC4)s1,"inconclusive [inhibitor, single point]",
N/C(=N\OC(=O)C(c1ccccc1)c1ccccc1)c1cccnc1,"inconclusive [inhibitor, single point]",
O=C(Nc1ccccc1N1CCCC1)c1ccc(Cl)c(S(=O)(=O)N2CCOCC2)c1,"inconclusive [inhibitor, single point]",
CC(=O)c1cccc(NC(=S)NC(=O)c2cncc(Br)c2)c1,"inconclusive [inhibitor, single point]",
CCc1c(C)nc(SCC(=O)N2CCCCC2C)[nH]c1=O (stereo not drawn),inactive,
CC(C)(C)Cc1c(C2CCCCC2)nc2ccc(Cl)cn12,"inconclusive [inhibitor, single point]",
